Experimental data: the supplement of paper PMC8728848
The list shows a part of the results.

Experiments:
Test in all cases: glycan array binding signal (z-score within array); higher = stronger binding
Conditions in all cases: glycan notation: IUPAC condensed, linker removed
Gal(b1-4)Glc = molecular target: Gal(b1-4)Glc
Method in brief: (§1)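 Negative Z-scores can be read as non-binding. The Z-score is calculated within each array and then averaged across arrays of one protein sequence at different concentrations or buffers and across linkers. Arrays, 3228 in all, were curated from the Consortium for Functional Glycomics database and kept only where the protein sequence was available.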

Gal(b1-4)Glc6S = molecular target: Gal(b1-4)Glc6S
Method in brief: as §1

Gal(b1-4)GlcNAc = molecular target: Gal(b1-4)GlcNAc
Method in brief: as §1

[1] = molecular target: Gal(b1-4)GlcNAc(a1-6)Gal(b1-4)GlcNAc
Method in brief: as §1

Gal(b1-4)GlcNAc(b1-2)Man = molecular target: Gal(b1-4)GlcNAc(b1-2)Man
Method in brief: as §1

[2] = molecular target: Gal(b1-4)GlcNAc(b1-2)Man(a1-3)Man(b1-4)GlcNAc(b1-4)GlcNAc
Method in brief: as §1

[3] = molecular target: Gal(b1-4)GlcNAc(b1-2)Man(a1-3)[Gal(b1-4)GlcNAc(b1-2)Man(a1-6)]Man(b1-4)GlcNAc(b1-4)GlcNAc
Method in brief: as §1

[4] = molecular target: Gal(b1-4)GlcNAc(b1-2)Man(a1-3)[Gal(b1-4)GlcNAc(b1-2)Man(a1-6)]Man(b1-4)GlcNAc(b1-4)[Fuc(a1-6)]GlcNAc
Method in brief: as §1

[5] = molecular target: Gal(b1-4)GlcNAc(b1-2)Man(a1-3)[Gal(b1-4)GlcNAc(b1-2)Man(a1-6)][Gal(b1-4)GlcNAc(b1-4)]Man(b1-4)GlcNAc(b1-4)[Fuc(a1-6)]GlcNAc
Method in brief: as §1

[6] = molecular target: Gal(b1-4)GlcNAc(b1-2)Man(a1-3)[Gal(b1-4)GlcNAc(b1-2)Man(a1-6)][GlcNAc(b1-4)]Man(b1-4)GlcNAc(b1-4)[Fuc(a1-6)]GlcNAc
Method in brief: as §1

[7] = molecular target: Gal(b1-4)GlcNAc(b1-2)Man(a1-3)[GlcNAc(b1-2)Man(a1-6)]Man(b1-4)GlcNAc(b1-4)GlcNAc
Method in brief: as §1

[8] = molecular target: Gal(b1-4)GlcNAc(b1-2)Man(a1-3)[GlcNAc(b1-4)][Gal(b1-4)GlcNAc(b1-2)Man(a1-6)]Man(b1-4)GlcNAc(b1-4)GlcNAc
Method in brief: as §1

[9] = molecular target: Gal(b1-4)GlcNAc(b1-2)Man(a1-3)[Man(a1-6)]Man(b1-4)GlcNAc(b1-4)GlcNAc
Method in brief: as §1

[10] = molecular target: Gal(b1-4)GlcNAc(b1-2)Man(a1-6)Man(b1-4)GlcNAc(b1-4)GlcNAc
Method in brief: as §1

[11] = molecular target: Gal(b1-4)GlcNAc(b1-2)Man(a1-6)[GlcNAc(b1-2)Man(a1-3)]Man(b1-4)GlcNAc(b1-4)GlcNAc
Method in brief: as §1

[12] = molecular target: Gal(b1-4)GlcNAc(b1-2)Man(a1-6)[Man(a1-3)]Man(b1-4)GlcNAc(b1-4)GlcNAc
Method in brief: as §1

[13] = molecular target: Gal(b1-4)GlcNAc(b1-2)[Gal(b1-4)GlcNAc(b1-4)]Man(a1-3)[Gal(b1-4)GlcNAc(b1-2)Man(a1-6)]Man(b1-4)GlcNAc(b1-4)GlcNAc
Method in brief: as §1

[14] = molecular target: Gal(b1-4)GlcNAc(b1-2)[Gal(b1-4)GlcNAc(b1-4)]Man(a1-3)[Gal(b1-4)GlcNAc(b1-2)[Gal(b1-4)GlcNAc(b1-6)]Man(a1-6)]Man(b1-4)GlcNAc(b1-4)GlcNAc
Method in brief: as §1

[15] = molecular target: Gal(b1-4)GlcNAc(b1-2)[Gal(b1-4)GlcNAc(b1-4)]Man(a1-3)[GlcNAc(b1-4)][Gal(b1-4)GlcNAc(b1-2)Man(a1-6)]Man(b1-4)GlcNAc(b1-4)GlcNAc
Method in brief: as §1

[16] = molecular target: Gal(b1-4)GlcNAc(b1-2)[Gal(b1-4)GlcNAc(b1-4)]Man(a1-3)[GlcNAc(b1-4)][Gal(b1-4)GlcNAc(b1-2)[Gal(b1-4)GlcNAc(b1-6)]Man(a1-6)]Man(b1-4)GlcNAc(b1-4)GlcNAc
Method in brief: as §1

[17] = molecular target: Gal(b1-4)GlcNAc(b1-2)[Gal(b1-4)GlcNAc(b1-6)]Man(a1-6)[Gal(b1-4)GlcNAc(b1-2)Man(a1-3)]Man(b1-4)GlcNAc(b1-4)GlcNAc
Method in brief: as §1

[18] = molecular target: Gal(b1-4)GlcNAc(b1-2)[Gal(b1-4)GlcNAc(b1-6)]Man(a1-6)[Gal(b1-4)GlcNAc(b1-2)Man(a1-3)]Man(b1-4)GlcNAc(b1-4)[Fuc(a1-6)]GlcNAc
Method in brief: as §1

B1: Thrombomodulin (Mus musculus) (protein)
chain: ALAKLQPTGSQCVEHECFALFQGPATFLDASQACQRLQGHLMTVRSSVAADVISLLLSQSSMDLGPWIGLQLPQGCDDPVHLGPLRGFQWVTGDNHTSYSRWARPNDQTAPLCGPLCVTVSTATEAAPGEPAWEEKPCETETQGFLCEFYFTASC
glycan array binding signal (z-score) (Gal(b1-4)Glc): -0.248 | glycan array binding signal (z-score) (Gal(b1-4)Glc6S): -0.068 | glycan array binding signal (z-score) (Gal(b1-4)GlcNAc): -0.162 | glycan array binding signal (z-score) [1]: -0.047 | glycan array binding signal (z-score) (Gal(b1-4)GlcNAc(b1-2)Man): 0.259 | glycan array binding signal (z-score) [2]: -0.092 | glycan array binding signal (z-score) [3]: -0.235 | glycan array binding signal (z-score) [4]: -0.046 | glycan array binding signal (z-score) [5]: -0.252 | glycan array binding signal (z-score) [6]: -0.343 | glycan array binding signal (z-score) [7]: -0.463 | glycan array binding signal (z-score) [8]: -0.271 | glycan array binding signal (z-score) [9]: 0.067 | glycan array binding signal (z-score) [10]: -0.282 | glycan array binding signal (z-score) [11]: -0.233 | glycan array binding signal (z-score) [12]: 0.088 | glycan array binding signal (z-score) [13]: -0.077 | glycan array binding signal (z-score) [14]: -0.205 | glycan array binding signal (z-score) [15]: -0.089 | glycan array binding signal (z-score) [16]: -0.075 | glycan array binding signal (z-score) [17]: -0.477 | glycan array binding signal (z-score) [18]: 0.056
